The text below walks through data of ChEMBL document CHEMBL4888484, “Replenishing the malaria drug discovery pipeline: Screening and hit evaluation of the MMV Hit Generation Library 1 (HGL1) against asexual blood stage Plasmodium falciparum ,using a nano luciferase reporter read-out” (2022).

Among all 150,000 compounds or so, about 540 (0.36%) showed an effect of 50% or more. This is one part of the list.

The subject of the assay is Plasmodium falciparum. Description: Primary screen in NF54 nanoGlo assay, in single point, at 2uM, 72h; a lower Z score goes with more inhibition. It is filed as functional, Erythrocyte. The conditions noted are these: timepoint 72 hour.
As for `CC(C)N(C(C)C)S(=O)(=O)c1ccc(N2CCCN(C)CC2)nc1`, the “% Inhibition” value is -2% and the Z score came out at 0.25.
As for `CCCc1nc(-c2cc3cc(C)ccc3nc2NC2CCCC2)no1`, the “% Inhibition” value is given as -14% and the Z score came to 2.35.
The corresponding values for `CC(C)(C)c1n[nH]c(O)c1Br` are 9% and -1.42.
With `COc1cccc(OCc2cn(CC(=O)NC3CCN(C(C)C)CC3)nn2)c1`, the “% Inhibition” value is recorded as -2% and the Z score was 0.41.
Turning to `COc1cccc(CNC(=O)CCC(=O)c2ccc3c(c2)OCCO3)c1`, the “% Inhibition” value is -8% and the Z score turned out to be 0.85.
Regarding `Cc1cccc(S(=O)(=O)N2CCO[C@@H](CN3CCOCC3)C2)c1`, the “% Inhibition” value is reported as -5% and the Z score is recorded as 0.84.
`Cc1noc(C)c1CNCc1ccc2c(c1)OCO2`: the “% Inhibition” value is -15% and the Z score was determined as 2.13.
The corresponding values for `Cc1ccc2[nH]c(CCc3nc([C@H]4CCOC4)no3)nc2c1C` are -9% and 1.51.
Consider `CCOc1cc2c(cc1COC(=O)C1CCN(S(=O)(=O)c3ccc(C)cc3)CC1)O[C@@H](C)C2`, for which the “% Inhibition” value is 1% and the Z score was -0.12.
For the compound `COc1ccccc1N1CCN(C(=O)c2nc3cc(C)c(C)cc3nc2OC)CC1`, the “% Inhibition” value is -6% and the Z score is on record as 1.17.
Consider `CC(=O)N(CC(F)(F)F)[C@H]1CCCOC1`, for which the “% Inhibition” value came to 1% and the Z score was -0.1.
Consider `COc1ccc(-c2cn(CC(=O)NC3CCCCCC3)nn2)cn1`, for which the “% Inhibition” value is listed as -5% and the Z score is reported as 1.09.
For `CN(Cc1ccccc1)C(=O)Cn1c(Cc2c(Cl)cccc2Cl)nc2ccccc21`, the “% Inhibition” value was -1% and the Z score turned out to be 0.11.
In the case of `Cc1nnnn1Cc1nnc(-c2ccccc2)o1`, the “% Inhibition” value is reported as -2% and the Z score came to 0.29.
`C[C@H](NC(=O)C(C)(C)NC(=O)Nc1ccccc1)c1ccccn1`: the “% Inhibition” value is given as -7% and the Z score is 0.88.
As for `Cn1ncnc1C1(O)CCN(c2nc(C(F)(F)F)cs2)CC1`, the “% Inhibition” value was -11% and the Z score is 1.13.
With `Cc1ccc2c(c1)C(c1ccccc1)=NNC(c1ccc(Cl)cc1)=N2`, the “% Inhibition” value was -5% and the Z score turned out to be 0.58.
As to `Cc1cc(C)c(CNC(=O)[C@@H]2COCCO2)c(=O)[nH]1`, the “% Inhibition” value was 6% and the Z score is on record as -0.98.
For `CC[C@H](C)CC(=O)N1CCCN(C2=NS(=O)(=O)C(c3ccc(C(C)C)cc3)=C2C)CC1`, in that order: -14% and 2.2.
For `CC(C)(C)c1ccc(C(=O)N[C@H]2CC(=O)N(C3CC3)C2)cc1`, the “% Inhibition” value is listed as 9% and the Z score is recorded as -1.17.
For the compound `Cc1ccc2c(c1)n(Cc1cccc(Cl)c1)c(=O)c1nc(C(=O)Nc3ccc(C(C)C)cc3)nn12`, the “% Inhibition” value was found to be 2% and the Z score is on record as -0.36.
On to `Cc1cc(C(=O)N2CC[C@H](n3c(C)nc4ccccc43)C2)c(C)o1`, for which the “% Inhibition” value is on record as -2% and the Z score is recorded as 0.28.
Turning to `COC(=O)c1ccc(CN=C(N)Nc2ccc(OC)nc2)cc1`, the “% Inhibition” value is on record as 3% and the Z score was -0.51.
For `COCC(=O)N[C@H]1CO[C@H]2[C@@H]1OC[C@@H]2n1nnnc1Oc1cccc(N(C)C)c1`, in that order: 30% and -3.49.
For the compound `C=CCN(Cc1coc(-c2ccccc2)n1)S(=O)(=O)c1ccc(Cl)cc1`, the “% Inhibition” value was -5% and the Z score was found to be 0.89.
Take `CO[C@@]1(C)CCCN(C(=O)CCc2ccccc2C(=O)O)CC1`: the “% Inhibition” value is listed as -2% and the Z score stood at 0.23.
The corresponding values for `CCc1ccc(-c2nc([C@H]3CCOC3)no2)cc1S(C)(=O)=O` are -9% and 1.48.
For the compound `Cc1cc(N2CCN(C)CC2)n2nc(-c3ccccc3)c(C)c2n1`, the “% Inhibition” value is on record as -16% and the Z score was found to be 3.14.
With `COc1ccc(NC(=O)Cn2c(=O)c(N3CCCC3)nc3ccccc32)cc1`, the “% Inhibition” value turned out to be 2% and the Z score is listed as -0.28.
As for `FCCN1CCC(Cc2nc3ccccc3[nH]2)CC1`, the “% Inhibition” value is reported as 19% and the Z score is -2.17.
Consider `CC(C)c1nc(CCNC(=O)N2CC[C@H](N3CCCCC3)C2)no1`, for which the “% Inhibition” value is -1% and the Z score came out at 0.17.
As to `CCO[C@H]1COC[C@@H]1NC(=O)Nc1ccc(Cl)cc1`, the “% Inhibition” value is reported as -5% and the Z score was 0.97.
Take `COc1ccc(Br)cc1C(=O)Nc1c(-n2cnnc2)nn(C)c1C`: the “% Inhibition” value is -4% and the Z score amounted to 0.55.
As to `O=C1C2CCCCN2C(=O)N1CC(O)COc1ccc(F)cc1` (centres undefined), the “% Inhibition” value is -5% and the Z score turned out to be 0.77.
In the case of `CC(C)c1cc(C(=O)NCc2cncn2C2CC2)on1`, the “% Inhibition” value was -2% and the Z score came to 0.36.
As for `Cc1cccc(N2CCN(CCCNc3ncnc4onc(-c5ccc(F)cc5)c34)C[C@@H]2C)c1`, the “% Inhibition” value is reported as -16% and the Z score was found to be 3.04.
For `O=C(Cc1ccccc1F)N[C@H]1CCN(c2ccc(=O)n(CCOc3ccccc3)n2)C1`, in that order: -14% and 1.87.
As for `Cn1cc(C(=O)NCC[C@H]2CCc3ccccc32)[nH]c1=O`, the “% Inhibition” value is reported as -6% and the Z score stood at 1.01.
Turning to `O=C(N[C@H]1CCc2ccccc21)c1n[nH]c2c1CCCC2`, the “% Inhibition” value is reported as 25% and the Z score is given as -2.87.
Take `CNc1snc(C)c1C(=O)N1CCC[C@H](NS(C)(=O)=O)C1`: the “% Inhibition” value was 1% and the Z score was -0.22.
For the compound `COCCN1C(=O)CC(CC(=O)N(Cc2ccccc2)C[C@@H]2CCC(=O)N2)(c2ccccc2F)C1=O` (some centres undefined), the “% Inhibition” value came to 0% and the Z score is recorded as -0.02.
In the case of `O=C(N1CCC[C@H]1c1csc(-c2ccoc2)n1)C(F)(F)F`, the “% Inhibition” value was -11% and the Z score is given as 1.25.
